Source: the supplement of paper PMC4604168 (melanoma cell lines)
The list shows a part of the results. Single values are uncertain, as repeats are few or missing.

Columns and labels:
Experiment in all cases: cell count relative to DMSO control; melanoma cells; higher = more viable cells
Conditions in all cases: library dose: standard library concentration; 72 h
[1] = tested on: G361
[2] = tested on: IPC-298
[3] = tested on: IST-MEL1
[4] = tested on: LB2518-MEL
[5] = tested on: LOXIMVI
[6] = tested on: MEL-HO
[7] = tested on: MZ2-MEL
[8] = tested on: MeWo
[9] = tested on: RPMI7951
[10] = tested on: RVH-421
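Also: cells treated in 1,536-well plates, then fixed and DAPI-stained, with nuclei counted from automated high-throughput microscope images.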

NC(=O)Nc1cc(-c2cccc(F)c2)sc1C(=O)N[C@H]1CCCNC1 + CN(NC(=O)CC(=O)NN(C)C(=S)c1ccccc1)C(=S)c1ccccc1 [STA4783] (first compound 0.1 µM, partner dose 0.03 µM)
cell count [1]: 38.1%
cell count [2]: 91.4%
cell count [3]: 23.7%
cell count [4]: 19.2%
cell count [5]: 43.6%
cell count [6]: 76.1%
cell count [7]: 117%
cell count [8]: 13.4%
cell count [9]: 34.4%
cell count [10]: 59.6%

C[C@]1(c2nc3c(C(N)=O)cccc3[nH]2)CCCN1 [Veliparib] + COc1ccc2c(c1)CCC1C2CCC2(C)C(NCCCCCCN3C(=O)C=CC3=O)CCC12 [U73122] (first compound 7 µM, partner dose 2 µM)
cell count [1]: 53.9%
cell count [2]: 85.7%
cell count [3]: 81.2%
cell count [4]: 81.5%
cell count [5]: 68%
cell count [6]: 88.4%
cell count [7]: 84.7%
cell count [8]: 48.8%
cell count [9]: 17.2%
cell count [10]: 83.2%

C=CCn1c(=O)c2cnc(Nc3ccc(N4CCN(C)CC4)cc3)nc2n1-c1cccc(C(C)(C)O)n1 + CC(C)CCN1c2nc(Nc3cc(F)c(O)c(F)c3)ncc2N(C)C(=O)C1C [BID1870] (first compound 0.1 µM, partner dose 1 µM)
cell count [1]: 59.8%
cell count [2]: 70.1%
cell count [3]: 89.1%
cell count [4]: 73.4%
cell count [5]: 62.9%
cell count [6]: 69.3%
cell count [7]: 102%
cell count [8]: 58.3%
cell count [9]: 77.1%
cell count [10]: 69.1%

NCC(=O)Nc1ccc(-n2nc(C(F)(F)F)cc2-c2ccc3c(ccc4ccccc43)c2)cc1 + COC(=O)c1sccc1S(=O)(=O)Nc1ccc(Nc2ccccc2)cc1OC [GSK0660] (first compound 5 µM, partner dose 5 µM)
cell count [1]: 64.1%
cell count [2]: 47.9%
cell count [3]: 81.2%
cell count [4]: 53.5%
cell count [5]: 94.7%
cell count [6]: 80.7%
cell count [7]: 64.7%
cell count [8]: 90.7%
cell count [9]: 54%
cell count [10]: 82.6%

C[C@]1(c2nc3c(C(N)=O)cccc3[nH]2)CCCN1 [Veliparib] + CN(C)S(=O)(=O)c1ccc2c(c1)/C(=C/c1cc3c([nH]1)CCCC3)C(=O)N2 [SU6656] (first compound 7 µM, partner dose 2 µM)
cell count [1]: 70.4%
cell count [2]: 79.6%
cell count [3]: 73.6%
cell count [4]: 70.9%
cell count [5]: 102%
cell count [6]: 88%
cell count [7]: 85.3%
cell count [8]: 74.3%
cell count [9]: 49%
cell count [10]: 104%

C[C@]1(c2nc3c(C(N)=O)cccc3[nH]2)CCCN1 [Veliparib] + N#Cc1c(O)c2c(-c3ccc(-c4ccccc4O)cc3)csc2[nH]c1=O [A769662] (first compound 7 µM, partner dose 10 µM)
cell count [1]: 96.2%
cell count [2]: 103%
cell count [3]: 94.7%
cell count [4]: 86.6%
cell count [5]: 110%
cell count [6]: 98.8%
cell count [7]: 95.7%
cell count [8]: 102%
cell count [9]: 138%
cell count [10]: 86.7%

Cc1nc(Nc2ncc(C(=O)Nc3c(C)cccc3Cl)s2)cc(N2CCN(CCO)CC2)n1 [dasatanib] + COc1cc(Nc2ncc(F)c(Nc3ccc4c(n3)NC(=O)C(C)(C)O4)n2)cc(OC)c1OC [Tamatinib] (first compound 0.02 µM, partner dose 2 µM)
cell count [1]: 51%
cell count [2]: 68.5%
cell count [3]: 37.7%
cell count [4]: 77.8%
cell count [5]: 3.13%
cell count [6]: 58.2%
cell count [7]: 30.2%
cell count [8]: 56%
cell count [9]: 11.6%
cell count [10]: 58.7%

C[C@]1(c2nc3c(C(N)=O)cccc3[nH]2)CCCN1 [Veliparib] + CC(C)CCN1c2nc(Nc3cc(F)c(O)c(F)c3)ncc2N(C)C(=O)C1C [BID1870] (first compound 7 µM, partner dose 1 µM)
cell count [1]: 63.5%
cell count [2]: 83.8%
cell count [3]: 87.5%
cell count [4]: 92.9%
cell count [5]: 104%
cell count [6]: 75.5%
cell count [7]: 78.9%
cell count [8]: 69.7%
cell count [9]: 92.5%
cell count [10]: 91.6%

Cc1nc(Nc2ncc(C(=O)Nc3c(C)cccc3Cl)s2)cc(N2CCN(CCO)CC2)n1 [dasatanib] + O=C(O)C(=O)Nc1sc2c(c1C(=O)O)CCNC2 [TCS401] (first compound 0.02 µM, partner dose 8.33333 µM)
cell count [1]: 78.9%
cell count [2]: 100%
cell count [3]: 71%
cell count [4]: 84.7%
cell count [5]: 27.8%
cell count [6]: 74.9%
cell count [7]: 49.8%
cell count [8]: 71.1%
cell count [9]: 36.8%
cell count [10]: 70.3%

C[C@]1(c2nc3c(C(N)=O)cccc3[nH]2)CCCN1 [Veliparib] + O=C(Nc1cccc(Cl)c1)Nc1ncc(CCNc2ncnc3ccsc23)s1 [SNS314] (first compound 7 µM, partner dose 0.004 µM)
cell count [1]: 66.8%
cell count [2]: 86.9%
cell count [3]: 65.1%
cell count [4]: 67.7%
cell count [5]: 84.8%
cell count [6]: 75.6%
cell count [7]: 91.7%
cell count [8]: 74.2%
cell count [9]: 64.4%
cell count [10]: 81.3%

Cc1nc(Nc2ncc(C(=O)Nc3c(C)cccc3Cl)s2)cc(N2CCN(CCO)CC2)n1 [dasatanib] + Cn1nnc2c(C(N)=O)ncn2c1=O [temozolomide] (first compound 0.02 µM, partner dose 10 µM)
cell count [1]: 89.3%
cell count [2]: 88.5%
cell count [3]: 71.2%
cell count [4]: 80.8%
cell count [5]: 31.4%
cell count [6]: 74.3%
cell count [7]: 59.2%
cell count [8]: 95.6%
cell count [9]: 42.3%
cell count [10]: 92.3%

NCC(=O)Nc1ccc(-n2nc(C(F)(F)F)cc2-c2ccc3c(ccc4ccccc43)c2)cc1 + N#Cc1c(O)c2c(-c3ccc(-c4ccccc4O)cc3)csc2[nH]c1=O [A769662] (first compound 5 µM, partner dose 10 µM)
cell count [1]: 76.8%
cell count [2]: 48.4%
cell count [3]: 68%
cell count [4]: 96.1%
cell count [5]: 78%
cell count [6]: 78.7%
cell count [7]: 101%
cell count [8]: 89.9%
cell count [9]: 75.3%
cell count [10]: 69%

OCCn1cc(-c2cnc3nnn(Cc4ccc5ncccc5c4)c3n2)cn1 + COc1cc2c(Oc3ccc4[nH]c(C)cc4c3F)ncnc2cc1OCCCN1CCCC1 [cediranib] (first compound 5 µM, partner dose 2 µM)
cell count [1]: 95.1%
cell count [2]: 101%
cell count [3]: 92.8%
cell count [4]: 85.1%
cell count [5]: 73.5%
cell count [6]: 101%
cell count [7]: 101%
cell count [8]: 79.6%
cell count [9]: 84%
cell count [10]: 79.7%

C=CCn1c(=O)c2cnc(Nc3ccc(N4CCN(C)CC4)cc3)nc2n1-c1cccc(C(C)(C)O)n1 + O=C(Nc1ccccc1)c1cc([N+](=O)[O-])ccc1Cl [GW9662] (first compound 0.1 µM, partner dose 10 µM)
cell count [1]: 78.7%
cell count [2]: 83%
cell count [3]: 94%
cell count [4]: 56.3%
cell count [5]: 77.6%
cell count [6]: 76%
cell count [7]: 81.4%
cell count [8]: 70.6%
cell count [9]: 49.7%
cell count [10]: 77.8%

CO[C@@H]1[C@H](N(C)C(=O)c2ccccc2)C[C@H]2O[C@]1(C)n1c3ccccc3c3c4c(c5c6ccccc6n2c5c31)C(=O)NC4 [Midostaurin] + Oc1cc(-c2nc(-c3ccccc3)[nH]c2-c2ccncc2)ccc1Cl [L779450] (first compound 0.4 µM, partner dose 1 µM)
cell count [1]: 43.7%
cell count [2]: 60.6%
cell count [3]: 64.4%
cell count [4]: 65.7%
cell count [5]: 39.4%
cell count [6]: 62.9%
cell count [7]: 44.8%
cell count [8]: 49.8%
cell count [9]: 36.3%
cell count [10]: 67%

C=CCn1c(=O)c2cnc(Nc3ccc(N4CCN(C)CC4)cc3)nc2n1-c1cccc(C(C)(C)O)n1 + CCc1ccc(CCOc2ccc(CC3SC(=O)NC3=O)cc2)nc1 [pioglitazone] (first compound 0.1 µM, partner dose 10 µM)
cell count [1]: 94.4%
cell count [2]: 84.6%
cell count [3]: 98.6%
cell count [4]: 65.2%
cell count [5]: 82.9%
cell count [6]: 83%
cell count [7]: 97.6%
cell count [8]: 66%
cell count [9]: 68.5%
cell count [10]: 78.7%

C=CCn1c(=O)c2cnc(Nc3ccc(N4CCN(C)CC4)cc3)nc2n1-c1cccc(C(C)(C)O)n1 + NCC(=O)Nc1ccc(-n2nc(C(F)(F)F)cc2-c2ccc3c(ccc4ccccc43)c2)cc1 [OSU03012] (first compound 0.1 µM, partner dose 5 µM)
cell count [1]: 56.4%
cell count [2]: 43.9%
cell count [3]: 90.3%
cell count [4]: 59.3%
cell count [5]: 73.4%
cell count [6]: 82.8%
cell count [7]: 101%
cell count [8]: 83.4%
cell count [9]: 47.7%
cell count [10]: 79.1%

Cc1nc(Nc2ncc(C(=O)Nc3c(C)cccc3Cl)s2)cc(N2CCN(CCO)CC2)n1 [dasatanib] + CCCCCCCCCCCC1=C(O)C(=O)C=C(O)C1=O [Embelin] (first compound 0.02 µM, partner dose 6 µM)
cell count [1]: 47.5%
cell count [2]: 68.5%
cell count [3]: 61.2%
cell count [4]: 73.4%
cell count [5]: 12.7%
cell count [6]: 66.4%
cell count [7]: 40.1%
cell count [8]: 71.6%
cell count [9]: 35.7%
cell count [10]: 65.2%

C=CCn1c(=O)c2cnc(Nc3ccc(N4CCN(C)CC4)cc3)nc2n1-c1cccc(C(C)(C)O)n1 + COc1cc2ncnc(Nc3ccc(Oc4ccccc4)cc3)c2cc1OC [SrcI1] (first compound 0.1 µM, partner dose 10 µM)
cell count [1]: 47%
cell count [2]: 54.1%
cell count [3]: 83.1%
cell count [4]: 63%
cell count [5]: 53.3%
cell count [6]: 64.7%
cell count [7]: 71.2%
cell count [8]: 60.1%
cell count [9]: 47.7%
cell count [10]: 75.8%

NC(=O)Nc1cc(-c2cccc(F)c2)sc1C(=O)N[C@H]1CCCNC1 + Cn1cncc1[C@@](N)(c1ccc(Cl)cc1)c1ccc2c(c1)c(-c1cccc(Cl)c1)cc(=O)n2C [tipifarnib] (first compound 0.1 µM, partner dose 0.05 µM)
cell count [1]: 78.4%
cell count [2]: 85.8%
cell count [3]: 84%
cell count [4]: 63.7%
cell count [5]: 57.7%
cell count [6]: 76.1%
cell count [7]: 118%
cell count [8]: 82.9%
cell count [9]: 37.2%
cell count [10]: 112%

Cc1nc(Nc2ncc(C(=O)Nc3c(C)cccc3Cl)s2)cc(N2CCN(CCO)CC2)n1 [dasatanib] + Oc1nc(-c2ccc(C(F)(F)F)cc2)nc2c1CSCC2 [XAV939] (first compound 0.02 µM, partner dose 10 µM)
cell count [1]: 71.6%
cell count [2]: 82.5%
cell count [3]: 60.7%
cell count [4]: 110%
cell count [5]: 26.6%
cell count [6]: 75.2%
cell count [7]: 51.4%
cell count [8]: 71.8%
cell count [9]: 47.8%
cell count [10]: 77.9%
